Measurements published in the supplement of paper PMC11417369.
The other results are listed elsewhere or left out.

system: PfSIP2 AP2 domain 1 (GST-tagged); assay: gcPBM binding intensity (ln(normalized median fluorescence intensity)); higher = stronger DNA binding
Procedure, shortened: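 DNA-binding domains from P. falciparum, fused to GST and produced in E. coli, were put on an Agilent 4 × 180k double-stranded probe array for 1 h in 1× PBS holding 1% milk, 0.2 mg/ml BSA, 0.5% salmon testes DNA and 0.03% Triton X-100. Probes were primer-extended, 36 bp long and drawn from intergenic genomic regions, with negative controls included. After Alexa488 anti-GST antibody detection and a 488 nm scan, binding intensity was set as the highest Masliner-normalised natural-log median intensity across replicate spots of either probe orientation.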

Row | Sequence | gcPBM binding intensity (ln)
1 | TGTGTTAAATGTAATAGTGAATAAATAATTTTAACA [TGCATGCA_negctrl_site161] | 6.81
2 | AAAATGAATATAATGACGCACACTTAAAATTGTTAA [CACACA_site2509] | 6.91
3 | TTTTTTAGAAAAAGTTGTACTTTTTTTTTTTTTTTT [XGTACX_site535] | 7.63
4 | AAAAAAAACAGACACACACACAAATATATAAAAATA [CACACA_site1172] | 6.94
5 | TTTTTGAAATAATGAAACAGCAAAAAAACAAAAATA [CACACA_negctrl_site221] | 7.2
6 | TATTAAAAGAAAATAACACACACAAAAAAAAAAAAA [CACACA_site8661] | 6.72
7 | AAAATAAGCGTGAAACGTACATATTACATTATTATA [XGTACX_site8914] | 6.86
8 | ATAATATATATATAGTGTACATTTGAATATATTTGA [XGTACX_site583] | 7.24
9 | TTTTAAAATATCAACACACTCATTATTTTCTATATT [CACACA_site4740] | 6.81
10 | AAAATAAAAACAAAATCACACATTCCAGTTTTTTTT [CACACA_site5356] | 6.76
11 | TCATTCTATCTGTTCACACATACACAAAAAAAAAAA [CACACA_site5141] | 7.53
12 | TATATACATGTGAGAGTGCATATAGACATAAAAAAT | 8.96
13 | AAGGTCATTTTATATTGTACATGAAATTGTTATGTA [XGTACX_site187] | 7.06
14 | TCAATTTGGAACGGTATGCACTAATTTTATATTTTT | 8.19
15 | ATATATTTTGTATGTAGTACAATTTTATAATCATAT [XGTACX_site8373] | 7.07
16 | AATAATGAATACACATGTACAAAAATTTTTCTTACT [XGTACX_site1962] | 7
17 | TATTACAAATATGGCACACATATATATATATATATT [CACACA_site3268] | 7.32
18 | ATATACAGATAAATGTGTACTTAAATCTATTATATT [XGTACX_site2632] | 6.92
19 | CAAATATCTATTTAGTGTACTAATATATTCAATAAT [XGTACX_site2345] | 7.11
20 | TATATAAAACCTTATTGTACTATTAGACTATGCTTA [XGTACX_site6026] | 6.77
21 | ACAAAGACAATTTTGTTATATATAAAAAAAAAAAAT [CACACA_negctrl_site253] | 6.98
22 | ATTAATTTTCCATTCACACATATATATATATATATA [CACACA_site6065] | 9.34

Row | Sequence | gcPBM binding intensity (ln)
23 | ATAGCATATATTTTTTGTACATATGTTATATATATA [XGTACX_site2184] | 8.25
24 | TACAAATATATATGCACACACATATCTGTATATGTG [CACACA_site5663] | 7.66
25 | ATGTAGATATATATCTGTACGTATATGTAAATATTA [XGTACX_site1516] | 7.14
26 | AATTCTTTTTATATATTAAATATTATTAATAAGTCA [CACACA_negctrl_site1488] | 6.84
27 | ACACATTATAACAAGGTGCAATTTTTATACACATGT [GTGCAC_site9866] | 10.4
28 | GAAAAAAAAAAAAATACACACAAATTGGTATATAAC [CACACA_site6315] | 6.75
29 | GCTATAATAAAATTTAAACACACGTAATATAATATA [CACACA_site2592] | 7.06
30 | AAAATTTCATAAAGACGTACTATAAAAATAAAATTA [XGTACX_site4182] | 7.2
31 | AAAAATTCTTGGCGCACACACTTTAAAAGTTAAAAA [CACACA_site6430] | 7.3
32 | GTATATTTCTTTAAATGTACACATTTTTTTAAAGAG [XGTACX_site1225] | 7.23
33 | AATTGTATAAATGGAATAATGACTATGATTATACAT [GTGCAC_negctrl_site188] | 6.96
34 | TATAAAAAATATCCTTTTTTTATACATCAATATATA [TGCATGCA_negctrl_site291] | 6.76
35 | CACTAATAGTGGATTACACACATATAGATGTATATA [CACACA_site7234] | 6.99
36 | ATTTATAATCTGTATAGTACACATATATACATGGTT [XGTACX_site2714] | 7.08
37 | CTAAAACAATAAATCACACATACATAGGATAATATA [CACACA_site4247] | 6.86
38 | TCTTAAATATACAGTTGTACTAAACAAAAAAAAAAA [XGTACX_site2639] | 7.2
39 | TATAAAAAATGATAAAGTACTTTATACACACAAATA [XGTACX_site8486] | 7.37
40 | AAAATATACACACATATGTATATAATATTATATGTA [GTGCAC_negctrl_site496] | 6.93
41 | CTTTCGGTTGGAGAGGTGCGCTTCTCCTTTATAATA | 11
42 | TGATAGCTAGCTATATGTACATATATATATATATAT [XGTACX_site393] | 9.49
43 | TACACAAAATTTAAATGTACATTAAATATATGATGT [XGTACX_site2140] | 7.04
44 | AAACATCATAAATATACACACATATATATATATATA [CACACA_site620] | 9.54

Row | Sequence | gcPBM binding intensity (ln)
45 | ATTTATCTATAATATACACACATATAACAGACATAT [CACACA_site6469] | 6.99
46 | AAAACGTATCACAAAAGTACAGATAGTTATAATATA [XGTACX_site185] | 6.97
47 | CGAAACCATATGTACACACACATATATAAATATGTA [CACACA_site7082] | 7.1
48 | TTTATATTTCTCTTTAGTACATATTATATTCTTTTA [XGTACX_site1618] | 7.03
49 | AATGAAAATAAATTAACACACAATTTTAATATTGTT [CACACA_site1306] | 6.67
50 | GTATACTTAACATTCACACATATATATATATATAAA [CACACA_site4596] | 7.37
51 | AATTATTTACCTTCTTTGAAAGAACAAATGATACAA [CACACA_negctrl_site1315] | 6.88
52 | ATATATATATATATATGTACTTATAATTCTTCAATT [XGTACX_site5627] | 9.01
53 | ATATATCAACTCATATTATTTTCTTTTATTATTTAT [CACACA_negctrl_site276] | 6.9
54 | TGTTATTAAAACGTGACACACAATATATATATATAT [CACACA_site3539] | 9.12
55 | TTTTTTTTTTTTTTTTGTACACATAGTAAAAATTAA [XGTACX_site2410] | 7.12
56 | TTTTTTTTTAAGCAAAGGAAATCAAAATAAAAATAT [CACACA_negctrl_site719] | 7.08
57 | TTATAAATTATATATATGACCAATAATTGTGAGCAT [CACACA_negctrl_site725] | 7.27
58 | TTTTTTTTTTATTCTACACACATATGTTTTTATATG [CACACA_site182] | 7.17
59 | TATATATATATATGTTGTACTTTTAATTTAAATGTA [XGTACX_site4239] | 9.63
60 | TGTCGACATGTAGGTAGTACTATTAAAAATAATGAT [XGTACX_site3849] | 7.19
61 | ATAGAAGGACATATAACACACATATATTATAAGTAT [CACACA_site5461] | 7.1
62 | AAATATATATATATAATACACACTAAAGTAACATAA [CACACA_site2870] | 7.1
63 | GGATGATTAAGGGGGACACACGTTTATATATTTATA [CACACA_site4342] | 7.82
64 | AAATAGGGAATTTATGCACACAGTTAAGGGGGAAAA [CACACA_site2071] | 7.94
65 | ATATATTATTATATATGTACTTATTTATAAATGATT [XGTACX_site7597] | 7.32
66 | AATAAATTAATAAGGTGTACATAAATAATTTATATA [XGTACX_site8278] | 6.99

Row | Sequence | gcPBM binding intensity (ln)
67 | TAAATATAAACACAAACACACACATATATATATATA [CACACA_site7978] | 9.28
68 | ATTCAAAAGGTTTAATGTACGTGATGTTTCACAAAT [XGTACX_site784] | 6.96
69 | CATACTCTACATAGATGTACTCATTTAAAAAAAAAA [XGTACX_site6945] | 7.42
70 | ATTTTTTTTTTTTTTTTTTTTTTTTTCTCTCTCACT [CACACA_negctrl_site1046] | 6.94
71 | TTATATTAAACAAACACACACATATATATATATATA [CACACA_site2382] | 9.54
72 | TTAACAAATGGACACACACACACACCCAAAAAAAAA [CACACA_site4443] | 7.26
73 | TGTTACATATTATAAATACATTAACTATTATATGTA [CACACA_negctrl_site1735] | 6.84
74 | TATATATATATATATTGTACATATTGTATATATTGT [XGTACX_site3212] | 9.46
75 | TTTATAAAAAATTTTTTTTTTTTTTTTTAAATATAT [CACACA_negctrl_site146] | 6.59
76 | TATATATATATTTATACACACATTAGTGTATCCATG [CACACA_site5609] | 8.51
77 | TTGGCATACAGACACACACACACACGCCCACATATA [CACACA_site6425] | 6.91
78 | TTTTTTTTTTGTAGTTGTACGAACTAGCTATTTATG [XGTACX_site692] | 7.08
79 | ATATATATATATATATGTACATATATATATTTTTTA [XGTACX_site5987] | 9.52
80 | TTATTTTTTCAAGAATGTACTTACGAATTGTCGTAT [XGTACX_site1363] | 6.73
81 | ATCAATACACATATATGTACATATAATAATTATCTT [XGTACX_site662] | 7.35
82 | CAAAAAAACAAACACACACACACACCCATATATATA [CACACA_site3653] | 7.37
83 | TAATTACCATATGGTACACACATATATATATGTATA [CACACA_site3487] | 7.19
84 | TTTCTTAAATATATGCGTACTCAAAATTGTTCTACA [XGTACX_site7995] | 7.04
85 | TAACCACAAAAATAAAATCAAAAAAAAAAAAAAAAA [CACACA_negctrl_site1727] | 6.75
86 | AAAAATATAATATAATGTACACATAAACAAAAAAAA [XGTACX_site3658] | 7.04
87 | AACAGACATACATACACACATACATACAGACATACA [CACACA_site1942] | 7.09
88 | ATATATATATATTTCGCACACATAATCTTATTAAAT [CACACA_site2579] | 9.09
